# According to the supplement of paper PMC3334620:
# Whole data set: some 33,000 sequences, median “E-score (-0.5 to 0.5)” near -0.054, cut for the highest 2% near 0.39. Some of the results follow.
# Target: Ylr278c (UniProt Q05854)
# Experiment: PBM E-score (8-mer binding enrichment) (E-score (-0.5 to 0.5)); higher = stronger / more preferred TF binding; most listed sequences are background and not binding sites
# Details: protein concentration: 200 nM; construct: GST-DNA-binding domain
# Outline: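 Universal all-10-mer Agilent arrays, fresh or stripped once, were converted to double-stranded form by primer extension. GST-tagged yeast transcription factors from PURExpress in vitro transcription/translation, full-length or DNA-binding domain only, were applied at about 100-200 nM and detected with fluorescent anti-GST. After masliner normalisation, the Universal PBM Analysis Suite scored each ungapped eight-base word together with its reverse complement by E-score.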
row,Sequence,PBM E-score
1,GCGTGGCC,-0.101
2,ATTGGTAA,0.00594
3,AGAATCAT,-0.29
4,CTCGAGCA,-0.0715
5,CGGCCTTA,0.352
6,ACAAGTGC,-0.268
7,CTTCATCC,0.0404
8,GCACAGAA,-0.04
9,AGACGATC,-0.101
10,ACTGGGAC,-0.157
11,CCGGAGTA,0.485
12,CATACCAA,0.0519
13,CTGCGTTC,0.0197
14,GCACAGCA,-0.0511
15,AACAACGT,0.00168
16,CCCGCGGG,0.363
17,ATCGTCTG,-0.113
18,GGACCGTA,-0.0273
19,ACGTGCCA,-0.147
20,GGCGGCCA,0.051
21,TATACTAA,-0.103
22,ATATTCGG,0.203
23,ATTTACGC,0.138
24,GCTTGCTA,-0.297
25,AGTTGAGA,-0.155

row,Sequence,PBM E-score
1,GGCGCCAA,0.0842
2,CGTCAGTC,-0.0105
3,AAGTTTCA,-0.0249
4,CGCACACA,-0.0811
5,ACTATATA,-0.0313
6,CCCGACCC,0.125
7,ACCGAGTC,-0.0262
8,ACCGACAG,0.158
9,CTGATAAA,-0.0956
10,AGGCCCAG,-0.0998
11,GATAGCCA,0.0138
12,CATGCTAC,-0.198
13,CGCTACGA,-0.00606
14,CGTGCCCC,-0.149
15,CACAGGAG,-0.115
16,CTCGAACC,-0.104
17,CTGTGTGC,-0.249
18,TAACAGTA,-0.262
19,ACAGTCAA,-0.188
20,ACGTTACT,-0.184
21,CATTGTCG,0.0388
22,AACACAAA,-0.106
23,TCAAAGCA,-0.174
24,GCGAGCTA,-0.00839
25,AGAGTAAA,-0.00659

row,Sequence,PBM E-score
1,ATAGTAAC,-0.0797
2,GGACGCAA,0.142
3,ATGCGTCC,0.0177
4,ATAGTTCG,-0.0272
5,CTGTGAAA,-0.0588
6,CAGGCTAG,-0.292
7,ACGCACGA,-0.168
8,CGTGTCAG,0.0804
9,AAATTCCT,0.155
10,CCTCCAGC,-0.37
11,ATATACAT,-0.124
12,GAAACTAC,0.00656
13,CATTGTAG,-0.0234
14,CTTGTTCC,0.0348
15,ATTGTTTA,-0.127
16,GAACACTA,-0.139
17,AGGTATTG,-0.17
18,ACGACCTC,0.0801
19,ACCAAAAC,0.00872
20,ACCGGGAG,0.287
21,ATGTCTCC,0.179
22,TAACACTA,-0.089
23,GGACCGGA,0.442
24,AGGACCGG,0.311
25,GAATATCA,0.108

row,Sequence,PBM E-score
1,CGTGAAGA,-0.0516
2,CTGGACGC,-0.225
3,GGCAGCCA,-0.00564
4,CCTTCTTA,-0.172
5,CAGATCCC,0.0159
6,CACAACCG,0.0798
7,ATAAGATC,-0.149
8,ATGTGGAC,-0.129
9,CTACTTGA,-0.226
10,GCTCTAGA,-0.22
11,ATGGACGA,0.0678
12,TATTCCAA,-0.177
13,TCGACCAA,-0.27
14,GTGGCGTA,-0.00886
15,GCGTAGAC,-0.275
16,CTGTTACC,-0.101
17,ACCGGCGC,0.351
18,ATGTTGTG,-0.0626
19,CATTCTTA,-0.166
20,AGGAACTG,-0.145
21,ACCGCCAA,-0.051
22,CATGCTGG,-0.302
23,CTCTGATC,-0.271
24,ATCCAAGA,-0.0868
25,CGCCAAAA,0.106

row,Sequence,PBM E-score
1,ACTTCGAC,-0.142
2,GACGAGCA,-0.137
3,ACGACAGA,-0.232
4,GTGGAATA,0.0653
5,ACTCCGCG,0.462
6,TGAGATAA,-0.00905
7,CCGTGCTC,0.191
8,CCTCGTCC,-0.132
9,CCTCTGAA,-0.219
10,GGTATGAC,0.0127
11,ATATGTTC,0.0855
12,TTACAAAA,-0.0461
13,ATAATCAC,-0.135
14,GGCCCAGA,-0.0417
15,AAGCCGAT,0.303
16,AGAAGATC,0.0466
17,CCCCGGGA,0.378
18,ACTACCCA,-0.284
19,CCTGCGGC,0.101
20,AAACCACC,-0.03
21,CCGAGCTC,0.202
22,AGCAACAT,-0.0662
23,CCAGTGCA,-0.344
24,AGGTCATA,-0.267
25,GGACTAAC,0.114

row,Sequence,PBM E-score
1,CAGTCGAG,-0.303
2,ACATAAAT,-0.128
3,AAAGAATG,0.0146
4,GACCTGGA,-0.214
5,AACCTCCT,-0.122
6,GCCCCACC,0.16
7,AGTGGCCC,0.109
8,CAATCCGA,0.251
9,AGCCTAAC,-0.0109
10,ATGTGAAG,-0.197
11,TGTAGTAA,0.103
12,AATTGAAA,-0.0795
13,CATCATTC,-0.0876
14,GATAATCA,-0.0841
15,CACTGAGG,-0.0699
16,CCAGAATC,-0.245
17,GCTCTAAC,-0.0661
18,ATTCTGAC,-0.139
19,CAGAAGTA,-0.204
20,CTCGGCTC,0.0899
21,CATGGGGC,-0.0703
22,GCAGCCAA,-0.0511
23,ATGAGTGA,-0.132
24,TCAACCCA,-0.0327
25,AGGTAAGC,-0.0616

row,Sequence,PBM E-score
1,CCAGCCGG,0.297
2,TCAGTGGA,-0.0109
3,ACAAACGA,0.00727
4,AGTGATAG,-0.195
5,TGCACGAA,-0.212
6,TCAAAAAA,0.0838
7,ACTGTTAT,-0.108
8,AAGTAACT,0.0219
9,ATCTGCAT,-0.0373
10,ATCGACCG,0.19
11,CGAGTTGC,-0.0686
12,GCCTCACA,-0.231
13,CGAAATCA,0.16
14,CGAGAAGA,0.0372
15,ATCGCGAA,0.286
16,AAGGCGAT,-0.244
17,CTGGGCGA,-0.158
18,AACACTTA,-0.0675
19,CATGGATA,-0.203
20,GCGAAAAC,-0.126
21,AATAACGT,-0.0941
22,CGTTAACA,-0.0824
